Marks after values point to notes of the source that are not given here.
B1: Protein I: IgG1-Fc linked to antiangiogenesis polypeptide EDSM-Y via a flexible linker; SEQ ID NO: 15 (protein)
chain: [sequence of human IgG1 Fc not given]GGGGSGGGGSGGGGSFQPVLHLVALNSPLSGGMRGIRGADFQCFQQARAVGLAGTFRAGGGGRGD
B2: Protein III: mIgG4-Fc linked to antiangiogenesis polypeptide EDSM-Y via a flexible linker; SEQ ID NO: 19 (protein)
chain: [sequence of human IgG4 Fc with S228P F234A L235A (EU numbers) and a few adjoining residues not given]GGGGSGGGGSGGGGSFQPVLHLVALNSPLSGGMRGIRGADFQCFQQARAVGLAGTFRAGGGGRGD

Columns and labels:
[1] = test system: human umbilical vein endothelial cells (HUVEC); experiment: Three-dimensional transwell assay, migration of HUVEC; type: cell-based
Procedure: Human umbilical vein endothelial cells (HUVECs) were cultured with endothelial cell culture fluid containing 5% fetal bovine serum and 1×ECGS in a 5% CO2 incubator at 37° C., to a confluence of 90% or more, and then inhibitory effects of fusion protein I, protein II, protein III, protein IV, and protein V on migration of endothelial cells were detected by transwell assay, in which only endothelial cells HUVEC of passage 2 to 8 were used, and the specific operation was as follows.
(1) 10 mg/mL Matrigel was diluted with a DMEM medium at a ratio of 1:4, coated on a transwell chamber membrane, and air-dried at room temperature.
(2) HUVEC cells cultured to logarithmic phase were digested with 0.2% EDTA, collected, washed twice with PBS, followed by resuspended in an endothelial cell culture liquid containing 0.1% BSA, counted under a microscope, and the cell concentration was adjusted to 1×10^5 cells/mL;
(3) Test solutions for each group were formulated and diluted to 100 μL with a cell culture liquid containing 0.1% BSA;
Groups were divided as follows:
Blank control group: a cell culture liquid containing no drug;
Endostar group: 5 mg/mL Endostar solution diluted to a predetermined concentration with a cell culture liquid containing no drug; […]
(4) The cells were inoculated into a transwell chamber at 100 μL per well, and test solutions for each group were added to the chamber. To a 24-well plate, 0.6 mL of endothelial cell culture liquid containing 5% fetal bovine serum and 1×ECGS was added to stimulate cell migration, and incubated at 5% CO2 for 24 h at 37° C.
(5) The culture liquid in the well was discarded. The cells were fixed with 90% alcohol at room temperature for 30 min, stained with 0.1% crystal violet for 10 min at room temperature, and rinsed with water. Un-migrated cells in the upper layer were gently wiped off by a cotton swab. The observation was carried out under microscope and four fields of view were selected for taking photos and counting. The migration inhibition (MI) was calculated according to the formula: […]
where Ntest is the migration cell number in the test group, and Ncontrol is the migration cell number in the blank control group.
The test was repeated 3 times independently. The results obtained from the test were calculated as mean±SD, and statistical t-test was performed. P<0.05 was considered as a significant difference, and P<0.01 was considered as an extremely significant difference.

[2] = test system: choroidal blood flow in rabbit eyes; experiment: Choroidal blood flow in rabbit eyes (color microsphere technique); type: in vivo; conditions: 128 μg intravitreal injection; for Blood flow: rabbit eyes with high intraocular pressure; for choroidal blood flow: all observation time points
Procedure: New Zealand white rabbits with weight of 2.5-3.0 kg were randomly divided into […], which were labeled as a control group, and fusion protein I, protein II, protein III, protein IV, and protein V groups. White rabbits in each group were anesthetized with 35 mg/kg xylazine via intramuscular injection, and then anesthesia was maintained with half of the initial amount via intramuscular injection per hour. The intraocular pressure of the left eye was increased to 40 mmHg, under which the blood flow can be reduced to ⅓ of the normal value. The left ventricle was cannulated through right carotid artery for injection of microspheres (for the calculation of ocular blood flow), and the femoral artery was cannulated for blood collection. Each group was given physiological saline, 128 μg of fusion protein I, 128 μg of protein II, 128 μg of protein III, 128 μg of protein IV, and 128 μg of protein V via intravitreal injection. The ocular blood flow of rabbit eyes with high intraocular pressure was measured by a color microsphere technique at 0, 30, and 60 minutes after administration. At each time point, 0.2 mL (about 2 million) of microspheres were injected. Immediately after the microspheres were injected, blood was collected through the femoral artery for 60 seconds, and placed in a heparinized anticoagulant tube, and the amount of blood collected was recorded. After the last blood collection, the animals were sacrificed with 100 mg/kg phenobarbital via intravenous infusion. The eyeballs were removed, and the retina, choroid, iris and ciliary body were separated, and the tissue weight was recorded. The tissue blood flow at each time point was calculated with the following formula: Qm=(Cm×Qr)/Cr, where Qm represented tissue blood flow in μL/min/mg; Cm was the number of microspheres per milligram of tissue; Qr was blood flow in μL/min; and Cr was the number of blood microspheres as a reference.

[3] = test system: toe swelling in rat induced by carrageenan; experiment: Acute inflammation of toe swelling in rat induced by carrageenan; type: in vivo; conditions: for Swelling degree 1 h: 1 h after carrageenan; for Swelling degree 1 h / Swelling degree 3 h / Swelling degree 5 h / Swelling degree 7 h: rat foot; for Swelling degree 3 h: 3 h after carrageenan; for Swelling degree 5 h: 5 h after carrageenan; for Swelling degree 7 h: 7 h after carrageenan
Procedure: 80 SD rats were randomly divided into 8 groups with 10 mice for each group. […] The drug was administered once by injection, and the model group was given an equal volume of physiological saline and fed normally. On the third day, 0.1 mL of 1% carrageenan was injected subcutaneously into the right hind toes of the rats to induce inflammation. The foot volume was measured at 1 h, 3 h, 5 h, and 7 h after inflammation. The swelling degree of the foot was calculated according to the following formula: the swelling degree of the foot (mL)=the volume of the foot after inflammation—the volume before inflammation. The number of milliliters of spilled liquid was recorded (method: the protruding point of the right joint was circled with a ballpoint pen and used as a measurement mark, and the right hind feet of the rat were sequentially placed in the volume measuring device, so that the hind limbs were exposed outside the cylinder, and the depth of the immersion was limited to the overlap of the circle and the liquid level. After the foot entered the liquid, the liquid level was raised, and the volume of the spilled liquid was the volume of the right hind foot of the rat, and the normal volume of the right hind foot of each rat is sequentially determined).

Row | Molecule | MI (%) ([1]; dose 0.25 μg/mL) | Migration cell number ([1]; dose 0.25 μg/mL) | MI (%) ([1]; dose 0.5 μg/mL) | Migration cell number ([1]; dose 0.5 μg/mL) | MI (%) ([1]; dose 1 μg/mL) | Migration cell number ([1]; dose 1 μg/mL) | MI (%) ([1]; dose 2 μg/mL) | Migration cell number ([1]; dose 2 μg/mL) | MI (%) ([1]; dose 4 μg/mL) | Migration cell number ([1]; dose 4 μg/mL) | MI (%) ([1]; dose 8 μg/mL) | Migration cell number ([1]; dose 8 μg/mL) | Blood flow ([2]; 0 min after administration) [µL/min/mg] | Blood flow ([2]; 30 min after administration) [µL/min/mg] | Blood flow ([2]; 60 min after administration) [µL/min/mg] | choroidal blood flow [2] | Swelling degree 1 h ([3]; 8 mg/kg) [mL] | Swelling degree 3 h ([3]; 8 mg/kg) [mL] | Swelling degree 5 h ([3]; 8 mg/kg) [mL] | Swelling degree 7 h ([3]; 8 mg/kg) [mL] | further results
1 | B1 | 19.18 | 2031.0 ± 184.39 | 30.42 | 1748.5 ± 361.22 | 63.27 | 923.0 ± 153.98 | 70.43 | 743.0 ± 233.57 | 68.36 | 795.0 ± 45.32**^ | 44.41 | 1397.0 ± 176.19 | 21.9 ± 2.3 | 16.9 ± 3.1 | 15.1 ± 1.6 | significantly increased | 0.26 ± 0.15 | 0.33 ± 0.12 | 0.42 ± 0.14 | 0.36 ± 0.11 | Swelling degree 1 h ([3]; 32 mg/kg): 0.22 ± 0.19 mL; Swelling degree 3 h ([3]; 32 mg/kg): 0.35 ± 0.17 mL; Swelling degree 5 h ([3]; 32 mg/kg): 0.31 ± 0.15 mL; Swelling degree 7 h ([3]; 32 mg/kg): 0.37 ± 0.18 mL; Swelling degree 1 h ([3]; 128 mg/kg): 0.27 ± 0.12 mL; Swelling degree 3 h ([3]; 128 mg/kg): 0.38 ± 0.16 mL; Swelling degree 5 h ([3]; 128 mg/kg): 0.34 ± 0.14 mL; Swelling degree 7 h ([3]; 128 mg/kg): 0.43 ± 0.16 mL; inhibition of toe swelling induced by carrageenan ([3]; high doses): could significantly inhibit toe swelling; inhibition of toe swelling induced by carrageenan ([3]; low dose): not significant
2 | B2 | 14.88 | 2139 ± 184.39 | 51.89 | 1209 ± 307.58 | 65.26 | 873 ± 142.04 | 70.08 | 752 ± 192.37 | 78.59 | 538 ± 54.26 | 43.49 | 1420 ± 136.22 | 22.1 ± 2.2 | 17.1 ± 2.9 | 14.9 ± 1.5 | significantly increased | 0.24 ± 0.04 | 0.37 ± 0.16 | 0.35 ± 0.07 | 0.41 ± 0.18 | Swelling degree 1 h ([3]; 32 mg/kg): 0.28 ± 0.17 mL; Swelling degree 3 h ([3]; 32 mg/kg): 0.31 ± 0.22 mL; Swelling degree 5 h ([3]; 32 mg/kg): 0.37 ± 0.14 mL; Swelling degree 7 h ([3]; 32 mg/kg): 0.39 ± 0.12 mL; Swelling degree 1 h ([3]; 128 mg/kg): 0.24 ± 0.12 mL; Swelling degree 3 h ([3]; 128 mg/kg): 0.36 ± 0.11 mL; Swelling degree 5 h ([3]; 128 mg/kg): 0.40 ± 0.10 mL; Swelling degree 7 h ([3]; 128 mg/kg): 0.43 ± 0.18 mL; inhibition of toe swelling induced by carrageenan ([3]; high doses): could significantly inhibit toe swelling; inhibition of toe swelling induced by carrageenan ([3]; low dose): not significant
